Reference: patent US20020106773A1 (MYRIAD GENETICS, published 2002)

T1: neuroendocrine protein Discs Large 3 (DLG3), amino acids 94-506, fused to the Gal4 activation domain (prey) (yeast; human, UniProt P04386 768-881; Q92796 94-506)
T1 construct: range 768-881;range 94-506; Yeast two-hybrid prey from the human brain cDNA library in pACT2; also called NE-d1g; SAP102 (synapse-associated protein 102)
T1 sequence (looked up): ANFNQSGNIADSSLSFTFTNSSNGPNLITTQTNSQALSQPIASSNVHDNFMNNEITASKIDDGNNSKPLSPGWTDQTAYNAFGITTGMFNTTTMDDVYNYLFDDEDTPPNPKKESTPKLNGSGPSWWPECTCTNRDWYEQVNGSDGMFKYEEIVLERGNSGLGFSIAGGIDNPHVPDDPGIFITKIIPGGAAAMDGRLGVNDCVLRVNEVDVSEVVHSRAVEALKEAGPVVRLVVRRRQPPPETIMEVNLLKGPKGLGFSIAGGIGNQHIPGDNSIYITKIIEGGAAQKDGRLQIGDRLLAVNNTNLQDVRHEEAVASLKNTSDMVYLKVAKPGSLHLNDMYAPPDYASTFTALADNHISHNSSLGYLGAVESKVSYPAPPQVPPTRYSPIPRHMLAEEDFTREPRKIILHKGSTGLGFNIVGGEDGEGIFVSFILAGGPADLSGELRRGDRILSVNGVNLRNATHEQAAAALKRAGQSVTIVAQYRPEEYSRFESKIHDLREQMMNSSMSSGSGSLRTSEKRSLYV

T2: transcription factor HTF4A, amino acids 296-494, fused to the Gal4 activation domain (prey) (yeast; human, UniProt P04386 768-881; Q99081 296-494)
T2 construct: range 768-881;range 296-494; Yeast two-hybrid prey from the human brain cDNA library in pACT2
T2 sequence (looked up): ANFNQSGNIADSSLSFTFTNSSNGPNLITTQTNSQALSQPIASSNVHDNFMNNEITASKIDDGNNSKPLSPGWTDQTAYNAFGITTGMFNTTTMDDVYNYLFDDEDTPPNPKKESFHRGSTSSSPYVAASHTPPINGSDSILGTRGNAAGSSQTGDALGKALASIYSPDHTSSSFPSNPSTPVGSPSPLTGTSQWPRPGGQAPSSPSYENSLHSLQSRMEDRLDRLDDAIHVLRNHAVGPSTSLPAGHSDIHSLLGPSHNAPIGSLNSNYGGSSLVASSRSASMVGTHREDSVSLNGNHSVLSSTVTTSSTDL

B1: bcr (break point cluster), amino acids 1206-1271 (C-terminal bait), fused to the Gal4 DNA binding domain (other, UniProt P04386 1-147, looked up)
chain: MKLLSSIEQACDICRLKKLKCSKEKPKCAKCLKNNWECRYSPKTKRSPLTRAHLTEVESRLERLEQLFLLIFPREDLDMILKMDSLQDIKALLTGLFVQDNVNKDAVTDRLASVETDMPLTLRQHRISATSSSEESSNKGQRQLTVSVFGPTLLRPSEKESKLPANPSQPITMTDSWSLEVMSQVQVLLYFLQLEAIPAPDSKRQSILFSTEV
notes: Yeast two-hybrid bait in pGBTQ
B2: CIB, amino acids 1-191, fused to the Gal4 DNA binding domain (bait) (other, UniProt P04386 1-147, looked up)
chain: MKLLSSIEQACDICRLKKLKCSKEKPKCAKCLKNNWECRYSPKTKRSPLTRAHLTEVESRLERLEQLFLLIFPREDLDMILKMDSLQDIKALLTGLFVQDNVNKDAVTDRLASVETDMPLTLRQHRISATSSSEESSNKGQRQLTVSMGGSGSRLSKELLAEYQDLTFLTKQEILLAHRRFCELLPQEQRSVESSLRAQVPFEQILSLPELKANPFKERICRVFSTSPAKDSLSFEDFLDLLSVFSDTATPDIKSHYAFRIFDFDDDGTLNREDLSRLVNCLTGEGEDTRLSASEMKQLIDNILEESDIDRDGTINLSEFQHVISRSPDFASSFKIVL
notes: range 1-147;range 1-191; Yeast two-hybrid bait in pGBTQ
B3: casein kinase II (CK2), amino acids 264-351, fused to the Gal4 activation domain (prey) (other, yeast;human, UniProt P04386 768-881, looked up, not shown: small tags and cut ends)
chain: ANFNQSGNIADSSLSFTFTNSSNGPNLITTQTNSQALSQPIASSNVHDNFMNNEITASKIDDGNNSKPLSPGWTDQTAYNAFGITTGMFNTTTMDDVYNYLFDDEDTPPNPKKEIDLDPHFNDILGQHSRKRWENFIHSENRHLVSPEALDLLDKLLRYDHQQRLTAKEAMEHPYFYPVVKEQSQPCADNAVLSSGLTAAR
notes: Yeast two-hybrid prey from the human brain cDNA library in pACT2
B4: HLA-B associated transcript (BAT3), amino acids 740-1040, fused to the Gal4 DNA binding domain (bait) (other, UniProt P04386 1-147, looked up)
chain: MKLLSSIEQACDICRLKKLKCSKEKPKCAKCLKNNWECRYSPKTKRSPLTRAHLTEVESRLERLEQLFLLIFPREDLDMILKMDSLQDIKALLTGLFVQDNVNKDAVTDRLASVETDMPLTLRQHRISATSSSEESSNKGQRQLTVSFEPGADGALGFFGALLSLLCQNFSMVDVVMLLHGHFQPLQRLQPQLRSFFHQHYLGGQEPTPSNIRMATHTLITGLEEYVRESFSLVQVQPGVDIIRTNLEFLQEQFNSIAAHVLHCTDSGFGARLLELCNQGLFECLALNLHCLGGQQMELAAVINGRIRRMSRGVNPSLVSWLTTMMGLRLQVVLEHMPVGPDAILRYVRRVGDPPQPLPEEPMEVQGAERASPEPQRENASPAPGTTAEEAMSRGPPPAPEGGSRDEQDGASAETEPWAAAVPPEWVPIIQQDIQSQRKVKPQPPLSD
notes: as for B1
B5: glutathione-S-transferase M3 (GST trans. M3), amino acids 15-226, fused to the Gal4 activation domain (prey) (other, yeast;human, UniProt P04386 768-881, looked up, not shown: small tags and cut ends)
chain: ANFNQSGNIADSSLSFTFTNSSNGPNLITTQTNSQALSQPIASSNVHDNFMNNEITASKIDDGNNSKPLSPGWTDQTAYNAFGITTGMFNTTTMDDVYNYLFDDEDTPPNPKKERGLAHAIRLLLEFTDTSYEEKRYTCGEAPDYDRSQWLDVKFKLDLDFPNLPYLLDGKNKITQSNAILRYIARKHNMCGETEEEKIRVDIIENQVMDFRTQLIRLCYSSDHEKLKPQYLEELPGQLKQFSMFLGKFSWFAGEKLTFVDFLTYDILDQNRIFDPKCLDEFPNLKAFMCRFEALEKIAAYLQSDQFCKMPINNKMAQWGNKPVC
notes: range 768-881;range 15-226; Yeast two-hybrid prey from the human brain cDNA library in pACT2
B6: Mint2, amino acids 1-210, fused to the Gal4 DNA binding domain (bait) (other, UniProt P04386 1-147, looked up)
chain: MKLLSSIEQACDICRLKKLKCSKEKPKCAKCLKNNWECRYSPKTKRSPLTRAHLTEVESRLERLEQLFLLIFPREDLDMILKMDSLQDIKALLTGLFVQDNVNKDAVTDRLASVETDMPLTLRQHRISATSSSEESSNKGQRQLTVSMAHRKLESVGSGMLDHRVRPGPVPHSQEPESEDMELPLEGYVPEGLELAALRPESPAPEEQECHNHSPDGDSSSDYVNNTSEEEDYDEGLPEEEEGITYYIRYCPEDDSYLEGMDCNGEEYLAHSAHPVDTDECQEAVEEWTDSAGPHPHGHEAEGSQDYPDGQLPIPEDEPSVLEAHDQEEDGHYCASKEGYQDYYPEEANGNTGASPY
notes: range 1-147;range 1-210; Yeast two-hybrid bait in pGBTQ; also called X11 beta
B7: Presinilin 2 (PS2), amino acids 1-97, fused to the Gal4 DNA binding domain (bait) (other, UniProt P04386 1-147, looked up)
chain: MKLLSSIEQACDICRLKKLKCSKEKPKCAKCLKNNWECRYSPKTKRSPLTRAHLTEVESRLERLEQLFLLIFPREDLDMILKMDSLQDIKALLTGLFVQDNVNKDAVTDRLASVETDMPLTLRQHRISATSSSEESSNKGQRQLTVSMLTFMASDSEEEVCDERTSLMSAESPTPRSCQEGRQGPEDGENTAQWRSQENEEDGEEDPDRYVCSGVPGRPPGLEEELTLKYGAKHVIMLFVPVTL
notes: range 1-147;range 1-97; Yeast two-hybrid bait in pGBTQ
B8: Mint1, amino acids 739-837, fused to the Gal4 DNA binding domain (bait) (other, UniProt P04386 1-147, looked up)
chain: MKLLSSIEQACDICRLKKLKCSKEKPKCAKCLKNNWECRYSPKTKRSPLTRAHLTEVESRLERLEQLFLLIFPREDLDMILKMDSLQDIKALLTGLFVQDNVNKDAVTDRLASVETDMPLTLRQHRISATSSSEESSNKGQRQLTVSIVRCPPVTTVLIRRPDLRYQLGFSVQNGIICSLMRGGIAERGGVRVGHRIIEINGQSVVATPHEKIVHILSNAVGEIHMKTMPAAMYRLLTAQEQPVYI
notes: Yeast two-hybrid bait in pGBTQ; also called X11 alpha
B9: SUR1, the type-1 sulfonylurea receptor, amino acids 121-270, fused to the Gal4 activation domain (prey) (other, yeast;human, UniProt P04386 768-881, looked up, not shown: small tags and cut ends)
chain: ANFNQSGNIADSSLSFTFTNSSNGPNLITTQTNSQALSQPIASSNVHDNFMNNEITASKIDDGNNSKPLSPGWTDQTAYNAFGITTGMFNTTTMDDVYNYLFDDEDTPPNPKKEVVYYHNIETSNFPKLLIALLVYWTLAFITKTIKFVKFLDHAIGFSQLRFCLTGLLVILYGMLLLVEVNVIRVRRYIFFKTPREVKPPEDLQDLGVRFLQPFVNLLSKGTYWWMNAFIKTAHKKPIDLRAIGKLPIAMRALTNYQRLCEAF
notes: Yeast two-hybrid prey from the human brain cDNA library in pACT2; also called SURI
B10: stearoyl CoA desaturase (SCD2), amino acids 320-359, fused to the Gal4 activation domain (prey) (other, yeast;human, UniProt P04386 768-881, looked up, not shown: small tags and cut ends)
chain: ANFNQSGNIADSSLSFTFTNSSNGPNLITTQTNSQALSQPIASSNVHDNFMNNEITASKIDDGNNSKPLSPGWTDQTAYNAFGITTGMFNTTTMDDVYNYLFDDEDTPPNPKKETTFFIDCMAALGLAYDRKKVSKAAILARIKRTGDGNYKSG
notes: range 768-881;range 320-359; Yeast two-hybrid prey from the human brain cDNA library in pACT2; also called Delta(9) desaturase

Legend:
[1] = biological target: T1, neuroendocrine protein Discs Large 3 …; assay: yeast two-hybrid, Example 30: bait bcr aa 1206-1271, prey aa 94-506
[2] = biological target: T2, transcription factor HTF4A, amino acids …; assay: yeast two-hybrid, Example 32: bait bcr aa 1206-1271, prey aa 296-494
[3] = biological target: T3, mixed lineage kinase 2 (MLK2), amino acids 305-549, fused to the Gal4 activation domain (prey) (yeast; human, UniProt P04386 768-881; Q02779 305-549); assay: yeast two-hybrid, Example 21: bait CIB aa 1-191, prey aa 305-549
T3 construct: range 768-881;range 305-549; Yeast two-hybrid prey from the human brain cDNA library in pACT2; also called MST; MAP3K10

[4] = biological target: T4, focal adhesion kinase (FAK), amino acids 724-1052, fused to the Gal4 DNA binding domain (bait) (yeast, UniProt P04386 1-147; Q05397 724-1052); assay: yeast two-hybrid, Example 27: bait FAK aa 724-1052, prey aa 264-351
T4 construct: range 1-147;range 724-1052; Yeast two-hybrid bait in pGBTQ

[5] = biological target: T5, transthyretin (TTH), amino acids 7-148, fused to the Gal4 activation domain (prey) (yeast; human, UniProt P04386 768-881; P02766 7-147); assay: yeast two-hybrid, Example 5: bait BAT3 aa 740-1040, prey aa 7-148
T5 construct: Yeast two-hybrid prey from the human brain cDNA library in pACT2

[6] = biological target: T4, focal adhesion kinase (FAK), amino …; assay: yeast two-hybrid, Example 28: bait FAK aa 724-1052, prey aa 15-226
[7] = biological target: T6, phosphodiesterase 9A (PDE-9A), amino acids 269-593, fused to the Gal4 activation domain (prey) (yeast; human, UniProt P04386 768-881; O76083 269-593); assay: yeast two-hybrid, Example 24: bait Mint2 aa 1-210, prey aa 269-593
T6 construct: range 768-881;range 269-593; Yeast two-hybrid prey from the human brain cDNA library in pACT2

[8] = biological target: T7, glyceraldehyde-3-phosphate dehydrogenase (GAPDH), amino acids 2-190, fused to the Gal4 activation domain … (yeast; human, UniProt P04386 768-881; P04406 2-190); assay: yeast two-hybrid, Example 16: bait PS2 aa 1-97, prey aa 2-190
T7 construct: range 768-881;range 2-190; Yeast two-hybrid prey from the human brain cDNA library in pACT2; the same range is printed for the PS1 and the PS2 search

[9] = biological target: T8, glutamine synthase (GS), amino acids 49-212, fused to the Gal4 activation domain (prey) (yeast; human, UniProt P04386 768-881; P15104 49-212); assay: yeast two-hybrid, Example 7: bait Mint1 aa 739-837, prey aa 49-212
T8 construct: range 768-881;range 49-212; Yeast two-hybrid prey from the human brain cDNA library in pACT2; also called glutamine synthetase; glutamate ammonia ligase

[10] = biological target: T9, Focal adhesion kinase 2 (FAK2), amino acids 673-866, fused to the Gal4 DNA binding domain (bait) (yeast, UniProt P04386 1-147; Q14289 673-866); assay: yeast two-hybrid, Example 23: bait FAK2 aa 673-866, prey aa 121-270
T9 construct: range 1-147;range 673-866; Yeast two-hybrid bait in pGBTQ; also called proline-rich tyrosine kinase 2 (PYK2); cell adhesion kinase beta

[11] = biological target: B2; assay: yeast two-hybrid, Example 25: bait CIB aa 1-191, prey aa 320-359

B1: binds [1]; binds [2].

B2: binds [3].

B3: binds [4].

B4: binds [5].

B5: binds [6].

B6: binds [7].

B7: binds [8].

B8: binds [9].

B9: binds [10].

B10: binds [11].
